From the supplement of paper PMC8728848
The list shows a part of the results.

Assays:
Assay in all cases: glycan array binding signal (z-score within array); higher = stronger binding
Details in all cases: glycan notation: IUPAC condensed, linker removed
[1] = target: Kdn(a2-3)Gal(b1-3)GalNAc
How it was run: (§1)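 Glycan array data came from 3228 arrays in the Consortium for Functional Glycomics database, and only arrays with an available protein sequence were kept. Glycan names were put into IUPAC-condensed notation, and columns mapping to the same glycan were averaged. The binding signal is a within-array Z-score, averaged across arrays of one protein sequence run at different concentrations or buffers and across linkers. A negative Z-score can be read as non-binding.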

[2] = target: Kdn(a2-3)Gal(b1-3)GlcNAc
How it was run: as §1

[3] = target: Kdn(a2-3)Gal(b1-4)Glc
How it was run: as §1

[4] = target: Kdn(a2-3)Gal(b1-4)GlcNAc
How it was run: as §1

[5] = target: Kdn(a2-3)Gal(b1-4)[Fuc(a1-3)]GlcNAc
How it was run: as §1

[6] = target: Kdn(a2-6)Gal(b1-4)GlcNAc
How it was run: as §1

[7] = target: Man(a1-2)Man(a1-2)Man(a1-3)Man
How it was run: as §1

[8] = target: Man(a1-2)Man(a1-2)Man(a1-6)[Man(a1-3)]Man
How it was run: as §1

[9] = target: Man(a1-2)Man(a1-3)Man
How it was run: as §1

[10] = target: Man(a1-2)Man(a1-3)[Man(a1-2)Man(a1-6)]Man
How it was run: as §1

[11] = target: Man(a1-2)Man(a1-3)[Man(a1-2)Man(a1-6)]Man(a1-6)[Man(a1-2)Man(a1-2)Man(a1-3)]Man
How it was run: as §1

[12] = target: Man(a1-2)Man(a1-3)[Man(a1-2)Man(a1-6)]Man(a1-6)[Man(a1-2)Man(a1-2)Man(a1-3)]Man(b1-4)GlcNAc(b1-4)GlcNAc
How it was run: as §1

[13] = target: Man(a1-2)Man(a1-3)[Man(a1-6)]Man(a1-6)[Man(a1-2)Man(a1-3)]Man(b1-4)GlcNAc(b1-4)GlcNAc
How it was run: as §1

[14] = target: Man(a1-2)Man(a1-6)[Man(a1-3)]Man(a1-6)[Man(a1-2)Man(a1-2)Man(a1-3)]Man
How it was run: as §1

[15] = target: Man(a1-2)Man(a1-6)[Man(a1-3)]Man(a1-6)[Man(a1-2)Man(a1-2)Man(a1-3)]Man(b1-4)GlcNAc(b1-4)GlcNAc
How it was run: as §1

[16] = target: Man(a1-3)[Man(a1-6)]Man
How it was run: as §1

[17] = target: Man(a1-3)[Man(a1-6)]Man(a1-6)[Man(a1-2)Man(a1-3)]Man(b1-4)GlcNAc(b1-4)GlcNAc
How it was run: as §1

[18] = target: Man(a1-3)[Man(a1-6)]Man(a1-6)[Man(a1-3)]Man
How it was run: as §1

[19] = target: Man(a1-3)[Man(a1-6)]Man(a1-6)[Man(a1-3)]Man(b1-4)GlcNAc(b1-4)GlcNAc
How it was run: as §1

[20] = target: Man(a1-3)[Man(a1-6)]Man(b1-4)GlcNAc(b1-4)GlcNAc
How it was run: as §1

[21] = target: Man(a1-3)[Man(a1-6)]Man(b1-4)GlcNAc(b1-4)[Fuc(a1-6)]GlcNAc
How it was run: as §1

[22] = target: Man(a1-6)Man
How it was run: as §1

[23] = target: Man(b1-4)GlcNAc
How it was run: as §1

[24] = target: MurNAc(b1-4)GlcNAc
How it was run: as §1

[25] = target: Neu5Ac(a2-3)Gal
How it was run: as §1

[26] = target: Neu5Ac(a2-3)Gal(b1-3)GalNAc
How it was run: as §1

[27] = target: Neu5Ac(a2-3)Gal(b1-3)GalNAc(b1-3)Gal(a1-4)Gal(b1-4)Glc
How it was run: as §1

[28] = target: Neu5Ac(a2-3)Gal(b1-3)GalNAc(b1-3)Gal(b1-4)GlcNAc
How it was run: as §1

[29] = target: Neu5Ac(a2-3)Gal(b1-3)GalNAc(b1-4)[Neu5Ac(a2-3)]Gal(b1-4)Glc
How it was run: as §1

[30] = target: Neu5Ac(a2-3)Gal(b1-3)GalNAc(b1-4)[Neu5Ac(a2-8)Neu5Ac(a2-3)]Gal(b1-4)Glc
How it was run: as §1

[31] = target: Neu5Ac(a2-3)Gal(b1-3)GalNAc6S
How it was run: as §1

[32] = target: Neu5Ac(a2-3)Gal(b1-3)GlcNAc
How it was run: as §1

[33] = target: Neu5Ac(a2-3)Gal(b1-3)GlcNAc(b1-2)Man
How it was run: as §1

[34] = target: Neu5Ac(a2-3)Gal(b1-3)GlcNAc(b1-2)Man(a1-3)[GlcNAc(b1-4)][Neu5Ac(a2-3)Gal(b1-3)GlcNAc(b1-2)Man(a1-6)]Man(b1-4)GlcNAc(b1-4)GlcNAc
How it was run: as §1

[35] = target: Neu5Ac(a2-3)Gal(b1-3)GlcNAc(b1-2)Man(a1-3)[Neu5Ac(a2-3)Gal(b1-3)GlcNAc(b1-2)Man(a1-6)]Man(b1-4)GlcNAc(b1-4)GlcNAc
How it was run: as §1

[36] = target: Neu5Ac(a2-3)Gal(b1-3)GlcNAc(b1-3)Gal(b1-3)GlcNAc
How it was run: as §1

[37] = target: Neu5Ac(a2-3)Gal(b1-3)GlcNAc(b1-3)Gal(b1-4)GlcNAc
How it was run: as §1

[38] = target: Neu5Ac(a2-3)Gal(b1-3)GlcNAc(b1-3)GalNAc
How it was run: as §1

[39] = target: Neu5Ac(a2-3)Gal(b1-3)GlcNAc(b1-4)Gal(b1-4)Glc
How it was run: as §1

[40] = target: Neu5Ac(a2-3)Gal(b1-3)GlcNAc(b1-6)GalNAc
How it was run: as §1

[41] = target: Neu5Ac(a2-3)Gal(b1-3)GlcNAc6S
How it was run: as §1

[42] = target: Neu5Ac(a2-3)Gal(b1-3)[Fuc(a1-4)]GlcNAc
How it was run: as §1

[43] = target: Neu5Ac(a2-3)Gal(b1-3)[Fuc(a1-4)]GlcNAc(b1-3)Gal(b1-3)[Fuc(a1-4)]GlcNAc
How it was run: as §1

[44] = target: Neu5Ac(a2-3)Gal(b1-3)[Fuc(a1-4)]GlcNAc(b1-3)Gal(b1-4)[Fuc(a1-3)]GlcNAc
How it was run: as §1

[45] = target: Neu5Ac(a2-3)Gal(b1-3)[GlcNAc(b1-6)]GalNAc
How it was run: as §1

B1: HPA (Helix pomatia), Q575S3 (protein)
chain: MWAHLTGLLLICALSLSAAQRAQTGEIDCGSDSSWPKDPSDNPNRDNTREIVKHVTFSPQFCREPKVILSVTTLDAEHTKNLRYEARLKSVSPSGLSASCYSWHDGTIYRMKLSWLAVED
**Q.** What does the source list for B1?
**A.** glycan array binding signal (z-score) [1]: -0.26; glycan array binding signal (z-score) [2]: -0.267; glycan array binding signal (z-score) [3]: 0.014; glycan array binding signal (z-score) [4]: -0.262; glycan array binding signal (z-score) [5]: -0.256; glycan array binding signal (z-score) [6]: -0.265; glycan array binding signal (z-score) [7]: -0.269; glycan array binding signal (z-score) [8]: -0.26; glycan array binding signal (z-score) [9]: -0.264; glycan array binding signal (z-score) [10]: -0.27; glycan array binding signal (z-score) [11]: -0.266; glycan array binding signal (z-score) [12]: -0.218; glycan array binding signal (z-score) [13]: -0.264; glycan array binding signal (z-score) [14]: -0.268; glycan array binding signal (z-score) [15]: -0.264; glycan array binding signal (z-score) [16]: -0.266; glycan array binding signal (z-score) [17]: -0.138; glycan array binding signal (z-score) [18]: -0.263; glycan array binding signal (z-score) [19]: -0.257; glycan array binding signal (z-score) [20]: -0.255; glycan array binding signal (z-score) [21]: -0.253; glycan array binding signal (z-score) [22]: -0.257; glycan array binding signal (z-score) [23]: -0.26; glycan array binding signal (z-score) [24]: -0.255; glycan array binding signal (z-score) [25]: -0.263; glycan array binding signal (z-score) [26]: -0.119; glycan array binding signal (z-score) [27]: -0.243; glycan array binding signal (z-score) [28]: -0.321; glycan array binding signal (z-score) [29]: -0.264; glycan array binding signal (z-score) [30]: -0.245; glycan array binding signal (z-score) [31]: -0.26; glycan array binding signal (z-score) [32]: -0.261; glycan array binding signal (z-score) [33]: -0.246; glycan array binding signal (z-score) [34]: -0.249; glycan array binding signal (z-score) [35]: -0.228; glycan array binding signal (z-score) [36]: -0.256; glycan array binding signal (z-score) [37]: -0.242; glycan array binding signal (z-score) [38]: -0.241; glycan array binding signal (z-score) [39]: -0.252; glycan array binding signal (z-score) [40]: -0.258; glycan array binding signal (z-score) [41]: -0.249; glycan array binding signal (z-score) [42]: -0.267; glycan array binding signal (z-score) [43]: -0.237; glycan array binding signal (z-score) [44]: -0.209; glycan array binding signal (z-score) [45]: -0.255
